Measured values as given in the supplement of paper PMC11383711.
The other results are listed elsewhere or left out. Binding of human antibodies (heavy:light variable regions, tested as scFv in one mRNA-display pool) to influenza hemagglutinin, with or without the stem antibody CR9114 bound first. Score = (mean enrichment − median) / interquartile range of that screen; higher = more enriched, 0 = typical non-binder. Active = above the paper's cut-off per screen: stems 28; unblocked H1 Solomon Islands 5, H1 Michigan 3, H3 5, H5 19, H7 2.85, both B 5; blocked 9, 7, H5 10, H7 10, B Phuket 10, B Lee 11.5. Scores are scaled within each screen and are no affinities; replicates correlate at about 0.6 to 0.9, and antibodies rare in the pool are noisier.

How the values were obtained:
Assay in all cases: mRNA display binding score; higher = more enriched on the antigen
[1] = target: Influenza A H1N1 A/Michigan/45/2015 hemagglutinin ectodomain
Experimental: (§1)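 A pool of natively paired antibodies, displayed as scFv on mRNA, was selected once on antigen-coated beads and sequenced before and after; two replicates.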

[2] = target: Influenza A H1N1 A/Solomon Islands/3/2006 hemagglutinin ectodomain
Experimental: as §1

[3] = target: Influenza A H3N2 A/Singapore/INFIMH-16-0019/2016 hemagglutinin ectodomain; conditions: antigen blocked with: nothing
Experimental: as §1

[4] = target: Influenza A H5N1 A/Qinghai/1A/2005 hemagglutinin ectodomain
Experimental: as §1

[5] = target: Influenza A H7N9 A/Shanghai/2/2013 hemagglutinin ectodomain
Experimental: as §1

[6] = target: Influenza B/Lee/1940 hemagglutinin ectodomain
Experimental: as §1

[7] = target: Influenza B/Phuket/3073/2013 hemagglutinin ectodomain
Experimental: as §1

[8] = antigen blocked with: 2 µM CR9114 IgG

Measured: mRNA display binding score

B1: 024-10-4C05 (protein)
chain 1: QLQLQESGPGLVKPSETLPLICTVSGGAIRFSSYYWGWIRQAPGKGLEWIATIHYSGTAHYNPSLKSRLTISVDTSTNQFSLRLSSVTAADTAVYYCARHRGYCSGGGCFGEVYFDSWGQGALVTVSS
chain 2: DIQMTQSPSSLSASVGDRVTITCRASQNIRTYLSWYQQKPGGAPKLLIYAASSLQSGVPLRFSGSGSGTDFTLTINGLQPEDFATYYCQQSYTTIVFGGGTKVEIK
inactive: [1]; [8] -0.0779 | [1]; antigen blocked with: nothing -0.244 | [2]; [8] 0.0176 | [2]; antigen blocked with: nothing -0.164 | [3] -0.388 | [4]; [8] -0.426 | [4]; antigen blocked with: nothing 0.0531 | [5]; [8] 0.449 | [5]; antigen blocked with: nothing -0.298 | [6]; [8] -0.0813 | [6]; antigen blocked with: nothing 0.0709 | [7]; [8] -0.0456 | [7]; antigen blocked with: nothing 0.285

B2: K77-1E03 (protein)
chain 1: LVQLQESGPGLVKPSETLSLTCTVSDGSISNYYWSWIRQPPGKGLEWIGYIFYSGSTNYNPSLKSRVSISVDTSKNQFSLKLRSVTAADTAVYYCARRQGWFHNAFDIWGQGTMVIVSS
chain 2: DIQMTQSPSSLSASVGDRVTITCRASQSIYSYLSWYQQKPGKAPKLLIYAASSLQSGVPSRFSGSGSGTDFTLTISSLQPEDFASYYCQQSYTTPRTFGQGTKLEIK
inactive: [1]; [8] -0.165 | [1]; antigen blocked with: nothing -0.545 | [2]; [8] -0.501 | [2]; antigen blocked with: nothing -0.494 | [3] -0.536 | [4]; [8] -0.58 | [4]; antigen blocked with: nothing -0.482 | [5]; [8] -0.739 | [5]; antigen blocked with: nothing -0.755 | [6]; [8] 0.536 | [6]; antigen blocked with: nothing -0.188 | [7]; [8] -0.638 | [7]; antigen blocked with: nothing -0.288

B3: W85-1D12 (protein)
chain 1: QVQLQESGPGLVQPSETLSLTCTVSGGSSSGHYWSWIRQPPGKGLEWMGHVYNSGSTNYNPSLKSRVTISVDTSKSQFSLKLTAVTAADTAVYYCARGAGYDYAWGSYRWNYFDNWGQGTPVTVSS
chain 2: DIQMTQSPSSLSASVGDRVTITCQASQDISNYLNWYQQKPGKAPRVLIYDASNLETWVPSRFTGRGSGTDFSVSISSLQPEDIATYYCQQYHNFPYTFGQGTNLESK
inactive: [1]; [8] -0.44 | [1]; antigen blocked with: nothing -0.587 | [2]; [8] -0.525 | [2]; antigen blocked with: nothing -0.541 | [3] -0.205 | [4]; [8] -0.817 | [4]; antigen blocked with: nothing -0.607 | [5]; [8] -0.84 | [5]; antigen blocked with: nothing -0.706 | [6]; [8] 0.627 | [6]; antigen blocked with: nothing 1.96 | [7]; [8] -0.624 | [7]; antigen blocked with: nothing -0.483

B4: 024-10-4C04 (protein)
chain 1: EVQLVQSGAEVKKPGESLKISCKGSEYSFSNYWIGWVRQMSGKGLEWMGIIYPDDSDTRYSPSFQGQVTISADKSISTAYLQWSSLKASDTAMYYCVRHSDAHSTNPDPPFYFRFAMDVWGQGTTVTVSS
chain 2: QSVLTQPPSVSGAPGQRVIISCTGNNSNIGAGHDVHWYQQVPGTAPKLLIFGNKNRPSGVPDRFSGSKSGSSASLAITGLQAADEADYYCQSYDNSLSLSHYWVFGGGTKVTVL
inactive: [1]; [8] 6.78 | [1]; antigen blocked with: nothing -0.0715 | [2]; [8] -0.282 | [2]; antigen blocked with: nothing -0.0746 | [3] -0.17 | [4]; [8] -0.881 | [4]; antigen blocked with: nothing -0.265 | [5]; [8] -0.88 | [5]; antigen blocked with: nothing -0.264 | [6]; [8] -0.104 | [6]; antigen blocked with: nothing -0.284 | [7]; [8] -0.607 | [7]; antigen blocked with: nothing 0.311

B5: 045-09-1F04 (protein)
chain 1: EVQLVESGGGLVQPGGSLRLSCAGSGFSFSSYSMNWVRQAQGRGLEWVSYISSYSGTIYYADSVKGRFTISRDNAKNSLYLQMNSLTADDTAVYYCARDDDSNDYNQDRYYYYGMDVWGQGTTVTVSS
chain 2: EIVMTQSPATLSVSPGERATLSCRASQSVSSNLAWYQQKPGQAPRLLIYGASTRATGIPARFSGSGSGTEFTLTISSLQSEDFALYYCQQYDNWPPITFGQGTRLEIK
inactive: [1]; [8] -0.21 | [1]; antigen blocked with: nothing -0.208 | [2]; [8] -0.496 | [2]; antigen blocked with: nothing 0.486 | [3] 0.0537 | [4]; [8] 0.053 | [4]; antigen blocked with: nothing -0.146 | [5]; [8] 0.159 | [5]; antigen blocked with: nothing 0.011 | [6]; [8] -0.00933 | [6]; antigen blocked with: nothing -0.297 | [7]; [8] -0.17 | [7]; antigen blocked with: nothing -0.243

B6: R95-2E07 (protein)
chain 1: EVQLVESGGGLVQPGGSLRLSCAASGFPFSTYWMYWVRQAPGKGLVSVSRINSDGSGTSYADSVEGRFTISRDNAKNTLYFQMNSLRAEDTAVYYCARRFGSGWTEWYFDLWGRGTLVTVSS
chain 2: DIQMTQSPSTLSASVGDKVTITCRASQSINRWLAWYQQKPGKAPKLLIYRASSLESGVPSRFSGSGSGTEFTLTISSLQPDDFATYFCQHYEGYSWTFGQGTKVDIK
inactive: [1]; [8] -0.575 | [1]; antigen blocked with: nothing -0.44 | [2]; [8] -0.619 | [2]; antigen blocked with: nothing -0.58 | [3] -0.547 | [4]; [8] -0.651 | [4]; antigen blocked with: nothing -0.508 | [5]; [8] -0.0352 | [5]; antigen blocked with: nothing -0.536 | [6]; [8] -0.245 | [6]; antigen blocked with: nothing -0.356 | [7]; [8] -0.565 | [7]; antigen blocked with: nothing -0.403

B7: 014-10-3F03 (protein)
chain 1: QVQLVESGGGVVQPGRSLRLSCAASGFTFSNHGMHWVRQAPGKGLEWVAVISFDGRKEYYANSVTGRFTISRDNSKNTLYLQLNSLRPEDTAFYYCAKDSYNGNREGGMDVWGQGTTVTVSS
chain 2: QSALTQPRSVSGSPGQSVTISCTGTSSDVGYYNYVSWYQQEPGKATKLMIYEVTKRPSGVPDRFSGSKSGNTASLTISGLQGEDEADYYCFSYAGRYTWVFGGGTKLTVL
inactive: [1]; [8] 5.94 | [1]; antigen blocked with: nothing -0.43 | [2]; [8] 2.18 | [2]; antigen blocked with: nothing 0.519 | [3] -0.483 | [4]; [8] 2.87 | [4]; antigen blocked with: nothing 2.94 | [5]; [8] 0.609 | [5]; antigen blocked with: nothing -0.521 | [6]; [8] -0.826 | [6]; antigen blocked with: nothing -0.375 | [7]; [8] 0.341 | [7]; antigen blocked with: nothing -0.206

B8: W85-1C01 (protein)
chain 1: QVQLQESGPRLVKPSETLSLTCTVSGGSISTTNYYWGWIRQTPGKGLEYIGSVSYSGKPYYNPSLRGRVTISVDTSKTQFSLTVISVTAADTAVYYCTRQAEGGWYGGFSNSWGQGTLVTVSS
chain 2: DIQMTQSPSTLSASVGDRVTITCRASQSISSWLAWYQQKAGKAPKLLIYKASTLEVGVPSRFSGRGSGTEFTLTISSLQPDDFATYYCQQYDSYLTFGGGTKVEIK
inactive: [1]; [8] 0.583 | [1]; antigen blocked with: nothing -0.205 | [2]; [8] -0.634 | [2]; antigen blocked with: nothing 0.0915 | [3] -0.557 | [4]; [8] -0.202 | [4]; antigen blocked with: nothing -0.287 | [5]; [8] 0.346 | [5]; antigen blocked with: nothing 0.875 | [6]; [8] -0.121 | [6]; antigen blocked with: nothing -0.381 | [7]; [8] -0.244 | [7]; antigen blocked with: nothing 0.081

B9: W85-1B04 (protein)
chain 1: LVQLQQWGAGLLKPSETLSLTCAVYGGSFSGYYWSWIRQPPGKGLEWIGEINHSGSSNYKPSLKSRVAISVDTSKNQFSLKLSSVTAADTAVYYCARGGRDGYNYTPFRAFDIWGQGTMVTVSS
chain 2: SYELTQPPSVSLSPGQTASITCSGDKLGDKYVCWYQQKPGQSPVLVIYADSKRPSGIPERFSGSNSGNTATLTISGTQAMDEADYYCQAWDTSTAIFGGGTRLTV
inactive: [1]; [8] -0.245 | [1]; antigen blocked with: nothing -0.58 | [2]; [8] -0.0689 | [2]; antigen blocked with: nothing -0.431 | [3] 0.323 | [4]; [8] -0.303 | [4]; antigen blocked with: nothing -0.403 | [5]; [8] -0.142 | [5]; antigen blocked with: nothing -0.328 | [6]; [8] 0.573 | [6]; antigen blocked with: nothing -0.433 | [7]; [8] -0.258 | [7]; antigen blocked with: nothing -0.247

B10: C1-2-2F04 (protein)
chain 1: VQLVESGGGVVQPGGSLRLSCAASGFIFTDYVMHWLRLTPGKGLEWVAIISFDGSNTYYTDSVKGRFTISRDQSANTLYLLMNSLRPDDTAVYYCVRGQDSSHYFDAWGQGALVTVSS
chain 2: EIVMTQSPATLSVSPGERATLSCRASQDIGTNLAWYQQKPGLAPRLLIYGVSTRATGIPARFSGSGSETEFTLTISIMQSEDCAVYFCQQYDFWPTFGQGTKVEIK
inactive: [1]; [8] 0.417 | [1]; antigen blocked with: nothing 0.0517 | [2]; [8] -0.524 | [2]; antigen blocked with: nothing -0.425 | [3] 0.0498 | [4]; [8] -0.394 | [4]; antigen blocked with: nothing -0.0674 | [5]; [8] 1.26 | [5]; antigen blocked with: nothing 0 | [6]; [8] -0.0205 | [6]; antigen blocked with: nothing -0.292 | [7]; [8] -0.461 | [7]; antigen blocked with: nothing 0.44

B11: AG1-E04 (protein)
chain 1: VQLVESGGGVVQPGRSLRLSCSASGFTFRSFAMHWVRQAPGRGLEWVAVMWIDGRGKDYADSVKGRFTISRDNSKSTLYLQMNNLRAEDTAVYYCARDQATKGLKPWGQGTLVTVSS
chain 2: DIQMTQSPSSLSASVGDKITITCRASQSISTYLNWYQQKPGTAPKLLIYAASSLQSGVPSRFSGSGSGTGFTLTISSLQPEDFATYYCQQSYSTPYTFGQGTKVEIK
inactive: [1]; [8] -0.455 | [1]; antigen blocked with: nothing -0.588 | [2]; [8] -0.316 | [2]; antigen blocked with: nothing -0.602 | [3] -0.233 | [4]; [8] -0.576 | [4]; antigen blocked with: nothing -0.516 | [5]; [8] -0.154 | [5]; antigen blocked with: nothing -0.659 | [6]; [8] 0.16 | [6]; antigen blocked with: nothing -0.449 | [7]; [8] -0.21 | [7]; antigen blocked with: nothing -0.383

B12: W85-3B05 (protein)
chain 1: EVQLMESGGGVVHPGRSLRLSCAASGFTFSSYAMHWVRQAPGKGLEWVAIISHDGSNKYYADSLKGRFTISRENSRSMVYLHVSSLRTEDTAVYYCARDLCSTSSCYVDHWGQGTLVTVSS
chain 2: DIQMTQSPSSLSASVGDRVTIICRASQGVSNWLAWYQQKPGKAPKSLIYAASALQSGVPSRFSGSGSGTEFSLTISNLQPEDFATYYCQQYNSYPLTFGGGTKVEIK
inactive: [1]; [8] -0.628 | [1]; antigen blocked with: nothing -0.635 | [2]; [8] -0.729 | [2]; antigen blocked with: nothing -0.468 | [3] -0.244 | [4]; [8] -0.583 | [4]; antigen blocked with: nothing -0.564 | [5]; [8] -0.382 | [5]; antigen blocked with: nothing -0.691 | [6]; [8] -0.666 | [6]; antigen blocked with: nothing -0.263 | [7]; [8] -0.272 | [7]; antigen blocked with: nothing -0.383
